# According to PubChem BioAssay (Tox21):
# “And” between values parts separate entries of the source, which are not always exact repeats. Identical values can stand only once. Inconclusive means that the source gave no clear call. Such entries were picked first, then a sample of the others. For some assays here: Potencies beside an inconclusive call are fits to weak or partial responses and may not hold up. A structure can be active in one record and inactive in another. The source made the active and inactive calls. Unless noted, the call rests on the fitted dose curve; in most records, active means well fitted curve in the direction sought with a large enough effect in the repeat runs; inconclusive means weak or mixed curves; inactive means no such curve, though single readings can be large; an effect the other way counts as inactive or inconclusive.
# What was measured:
# [1] = biological target: Peroxisome proliferator-activated receptor gamma (Homo sapiens) (UniProt P37231); experiment: qHTS assay to identify small molecule antagonists of the peroxisome proliferator-activated receptor gamma (PPARg) signaling pathway (AID 743191; calls by dose curve; further: on the % scale 0 is the no-effect control and ±100 the full control effect; nearly all actives have a fitted effect of over 30% in size); conditions: HEK293H PPARg-UAS-bla, beta-lactamase ratio, antagonist, 17 h; ratio activity, negative = inhibition: at 62.6 µM (top of the series) unless noted
# In short: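 GeneBLAzer PPARg UAS-bla HEK293H cells, 5 h post-plating, exposed to compounds 17 h at 37C. LiveBLAzer B/G FRET substrate added for 1 h at room temperature; beta-lactamase reporter read by fluorescence intensity.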
# [2] = qHTS assay for small molecule agonists of the antioxidant response element (ARE) signaling pathway (AID 743202; active means well fitted activation curve with a large enough effect in the signal ratio in the repeat runs, not every such curve was filed as active; inconclusive means weak or mixed curves, or effect the other way; inactive means no such curve, though single readings can be large or run the other way; the % refers to the signal ratio; further: potency means the concentration at half of the fitted maximal effect; on activation: on the % scale 0 is the no-effect control and ±100 the full control effect); conditions: HepG2 ARE-bla reporter, beta-lactamase FRET, 16 h; activation: at 73.3 µM (top of the series) unless noted
# In short: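 HepG2 ARE-bla cells; 16 h treatment at 37 C; FRET-based beta-lactamase fluorescence read after 2 h substrate incubation at room temperature.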
# [3] = qHTS assay for small molecule activators of the heat shock response signaling pathway - cell viability counter screen (AID 743209); conditions: HSE-bla HeLa viability, CellTiter-Glo luminescence, 5 h; activity change, negative = cytotoxicity: at 62.6 µM (top of the series); further: potency means the concentration at half of the fitted maximal effect; nearly all actives have a fitted effect of over 50% in size
# In short: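 Cytotoxicity counter screen run in parallel with the HSE beta-lactamase reporter, using the same wells. HeLa HSE-bla cells received compound for 5 h at 37 C; ATP-based CellTiter-Glo luminescence was measured after 30 min at room temperature.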
# [4] = qHTS assay for small molecule activators of the heat shock response signaling pathway (AID 743210; active means well fitted activation curve with a large enough effect in the signal ratio in the repeat runs, with a control signal flat, not every such curve was filed as active; inconclusive means weak or mixed curves; the % refers to the signal ratio; further: potency means the concentration at half of the fitted maximal effect); conditions: HeLa HSE-bla reporter, beta-lactamase ratio, 5 h; activation: at 62.6 µM (top of the series)
# In short: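 Following overnight attachment, HSE-bla HeLa cells received test compounds for 5 h at 37 C; beta-lactamase activity was then detected via FRET substrate fluorescence.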
# [5] = qHTS assay to identify small molecule antagonists of the peroxisome proliferator-activated receptor delta (PPARd) signaling pathway - cell viability counter screen (AID 743213); conditions: PPARd-bla HEK293H viability, CellTiter-Glo luminescence, 17 h; viability change, negative = cytotoxic: at 62 µM (top of the series) unless noted; further: nearly all actives have a fitted effect of over 50% in size; further: potency means the concentration at half of the fitted maximal effect; on viability change, negative = cytotoxic: on the % scale 0 is the no-effect control and ±100 the full control effect
# In short: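 Cytotoxicity counter screen: CellTiter-Glo luminescence read 30 min after addition, in the same wells as the reporter assay. There, PPARd UAS-bla HEK293H cells (3000/well) were treated 17 h at 37 C with compound and 300 nM L165041.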
# [6] = biological target: Vitamin D3 receptor (Homo sapiens) (UniProt P11473); experiment: qHTS assay to identify small molecule agonists of the vitamin D receptor (VDR) signaling pathway (AID 743222; calls by dose curve; further: potency means the concentration at half of the fitted maximal effect); conditions: HEK293T VDR-UAS-bla, beta-lactamase FRET ratio, 16 h; activation: at 63.5 µM (top of the series) unless noted
# In short: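 Cells carrying a VDR-driven beta-lactamase reporter are seeded at 2,000 per well and rested 4 h. Compounds in DMSO are added for 16 h at 37C, and FRET substrate fluorescence is measured after 2 h at room temperature.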
# [7] = biological target: Vitamin D3 receptor (Homo sapiens) (UniProt P11473); experiment: qHTS assay to identify small molecule antagonists of the vitamin D receptor (VDR) signaling pathway (AID 743223; active means well fitted inhibition curve with a large enough effect in the signal ratio in the repeat runs, not every such curve was filed as active; inconclusive means weak or mixed curves, or effect the other way; inactive means no such curve, though single readings can be large or run the other way; the % refers to the signal ratio; further: on the % scale 0 is the no-effect control and ±100 the full control effect); conditions: VDR-UAS-bla HEK293T, beta-lactamase FRET ratio, 16 h; activity change, negative = inhibition: at 61 µM (top of the series) unless noted
# In short: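 VDR-bla cells were treated with compound plus 3 nM final 1alpha,25-dihydroxyvitamin D3 for 16 h at 37C. Beta-lactamase reporter read by B/G FRET substrate fluorescence after 2 h at room temperature. qHTS format.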
# [8] = qHTS assay to identify small molecule agonists of the peroxisome proliferator-activated receptor delta (PPARd) signaling pathway - cell viability counter screen (AID 743211); conditions: PPARd-bla HEK293H viability, CellTiter-Glo luminescence, 17 h; activity change, negative = cytotoxicity: at 62.6 µM (top of the series); further: potency means the concentration at half of the fitted maximal effect; nearly all actives have a fitted effect of over 55% in size
# In short: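 PPARd-bla HEK293H cells (3000/well) were pre-incubated 5 h at 37 C, then exposed to compound for 17 h at 37 C. After 2 h with LiveBLAzer substrate, CellTiter-Glo was added to the same wells; luminescence read after 30 min at room temperature.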
# [9] = biological target: Peroxisome proliferator-activated receptor delta (Homo sapiens) (UniProt Q03181); experiment: qHTS assay to identify small molecule agonists of the peroxisome proliferator-activated receptor delta (PPARd) signaling pathway (AID 743212; calls by dose curve; further: potency means the concentration at half of the fitted maximal effect); conditions: HEK293H PPARd-UAS-bla, beta-lactamase FRET ratio, 17 h; activation: at 62.6 µM (top of the series) unless noted
# In short: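 Tox21 library screened in GeneBLAzer PPARd UAS-bla HEK293H cells. After compound treatment at 37 C, a FRET-based beta-lactamase substrate was applied for 2 h and fluorescence recorded.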
# [10] = biological target: Peroxisome proliferator-activated receptor delta (Homo sapiens) (UniProt Q03181); experiment: qHTS assay to identify small molecule antagonists of the peroxisome proliferator-activated receptor delta (PPARd) signaling pathway (AID 743215; active means well fitted inhibition curve with a large enough effect in the signal ratio in the repeat runs, not every such curve was filed as active; inconclusive means weak or mixed curves, or effect the other way; inactive means no such curve, though single readings can be large or run the other way; the % refers to the signal ratio;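 further: cells stimulated with agonist L165041 at 300 nM final during compound exposure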; further: potency means the concentration at half of the fitted maximal effect; on ratio activity, negative = inhibition: on the % scale 0 is the no-effect control and ±100 the full control effect); conditions: HEK293H PPARd-UAS-bla, beta-lactamase FRET ratio, antagonist, 17 h; ratio activity, negative = inhibition: at 62 µM (top of the series) unless noted
# In short: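 Cells: HEK293H with a UAS-driven beta-lactamase reporter responsive to PPARd. Compounds were co-added with L165041 (300 nM, final) and incubated 17 h at 37 C before a 2 h room-temperature FRET substrate step and fluorescence reading.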
# [11] = biological target: Bile acid receptor (Homo sapiens) (UniProt Q96RI1); experiment: qHTS assay to identify small molecule antagonists of the farnesoid-X-receptor (FXR) signaling pathway (AID 743217; active means well fitted inhibition curve with a large enough effect in the signal ratio in the repeat runs, not every such curve was filed as active; inconclusive means weak or mixed curves, or effect the other way; inactive means no such curve, though single readings can be large or run the other way; the % refers to the signal ratio; further: potency means the concentration at half of the fitted maximal effect); conditions: HEK293T FXR-UAS-bla, beta-lactamase ratio, CDCA-stimulated, 16 h; activity change, negative = inhibition: at 62.6 µM (top of the series) unless noted
# In short: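 Cells carrying a UAS-driven beta-lactamase reporter (GeneBLAzer FXR-UAS-bla HEK 293T) were plated and rested 5 h at 37 °C. Compounds in DMSO were added alongside chenodeoxycholic acid agonist at 50 uM final and left 16 h at 37 °C before FRET substrate readout.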
# [12] = qHTS assay to identify small molecule antagonists of the farnesoid-X-receptor (FXR) signaling pathway - cell viability counter screen (AID 743221; active means well fitted cell-killing curve with a large enough effect in the repeat runs, not every such curve was filed as active; inconclusive means weak or mixed curves, or effect the other way; inactive means no such curve, though single readings can be large or run the other way; further: potency means the concentration at half of the fitted maximal effect; nearly all actives have a fitted effect of over 50% in size); conditions: FXR-bla HEK293T viability, CellTiter-Glo luminescence, 16 h; activity change, negative = cytotoxicity: at 62.6 µM (top of the series)
# In short: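 GeneBLAzer FXR-UAS-bla HEK 293T cells, compound plus chenodeoxycholic acid (50 uM final), 16 h at 37 C. CellTiter-Glo added to the same wells after the beta-lactamase read; luminescence read after 30 min at room temperature as viability.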
# Tags describe the fitted curve by direction and shape or compound fluorescence and quenching.
# Sequence of UniProt P37231 (P37231 whole entry, looked up): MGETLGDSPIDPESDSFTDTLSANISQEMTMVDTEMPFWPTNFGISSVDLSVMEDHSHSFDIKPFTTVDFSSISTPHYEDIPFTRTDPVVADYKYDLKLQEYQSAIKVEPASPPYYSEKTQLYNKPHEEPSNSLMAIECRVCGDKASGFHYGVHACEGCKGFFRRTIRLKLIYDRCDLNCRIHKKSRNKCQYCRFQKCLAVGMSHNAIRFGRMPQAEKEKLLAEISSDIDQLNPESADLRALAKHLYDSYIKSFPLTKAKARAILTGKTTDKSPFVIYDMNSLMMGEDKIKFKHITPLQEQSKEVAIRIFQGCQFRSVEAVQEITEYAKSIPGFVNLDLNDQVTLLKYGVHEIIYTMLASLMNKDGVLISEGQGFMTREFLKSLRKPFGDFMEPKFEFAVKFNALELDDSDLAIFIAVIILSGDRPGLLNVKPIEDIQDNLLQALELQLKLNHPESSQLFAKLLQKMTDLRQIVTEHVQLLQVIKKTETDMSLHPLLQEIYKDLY
# Sequence of UniProt Q03181 (Q03181 whole entry, looked up): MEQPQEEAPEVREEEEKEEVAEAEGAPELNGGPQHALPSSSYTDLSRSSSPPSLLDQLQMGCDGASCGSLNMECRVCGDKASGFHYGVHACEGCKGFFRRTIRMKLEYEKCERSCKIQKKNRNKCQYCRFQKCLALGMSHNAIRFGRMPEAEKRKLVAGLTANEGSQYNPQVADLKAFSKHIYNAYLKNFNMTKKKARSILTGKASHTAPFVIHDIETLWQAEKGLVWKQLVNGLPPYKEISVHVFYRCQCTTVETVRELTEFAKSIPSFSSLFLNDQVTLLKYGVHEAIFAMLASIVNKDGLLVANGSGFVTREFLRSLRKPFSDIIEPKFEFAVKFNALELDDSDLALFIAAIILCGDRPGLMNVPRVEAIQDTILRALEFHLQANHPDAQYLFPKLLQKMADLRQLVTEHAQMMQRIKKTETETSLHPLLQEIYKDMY
# Sequence of UniProt P11473 (P11473 whole entry, looked up): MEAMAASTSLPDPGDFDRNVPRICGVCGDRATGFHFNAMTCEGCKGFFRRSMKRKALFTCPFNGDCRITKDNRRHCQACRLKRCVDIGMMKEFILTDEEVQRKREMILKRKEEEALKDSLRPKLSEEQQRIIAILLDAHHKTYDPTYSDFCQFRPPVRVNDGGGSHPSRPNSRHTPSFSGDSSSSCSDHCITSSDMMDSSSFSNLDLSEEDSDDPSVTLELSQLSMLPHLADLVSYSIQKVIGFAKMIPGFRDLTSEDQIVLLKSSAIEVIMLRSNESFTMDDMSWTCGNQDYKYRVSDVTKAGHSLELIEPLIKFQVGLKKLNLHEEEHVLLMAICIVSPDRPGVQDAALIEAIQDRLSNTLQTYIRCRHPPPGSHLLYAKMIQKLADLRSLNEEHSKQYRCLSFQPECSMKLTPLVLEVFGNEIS
# Sequence of UniProt Q96RI1 (Q96RI1 whole entry, looked up): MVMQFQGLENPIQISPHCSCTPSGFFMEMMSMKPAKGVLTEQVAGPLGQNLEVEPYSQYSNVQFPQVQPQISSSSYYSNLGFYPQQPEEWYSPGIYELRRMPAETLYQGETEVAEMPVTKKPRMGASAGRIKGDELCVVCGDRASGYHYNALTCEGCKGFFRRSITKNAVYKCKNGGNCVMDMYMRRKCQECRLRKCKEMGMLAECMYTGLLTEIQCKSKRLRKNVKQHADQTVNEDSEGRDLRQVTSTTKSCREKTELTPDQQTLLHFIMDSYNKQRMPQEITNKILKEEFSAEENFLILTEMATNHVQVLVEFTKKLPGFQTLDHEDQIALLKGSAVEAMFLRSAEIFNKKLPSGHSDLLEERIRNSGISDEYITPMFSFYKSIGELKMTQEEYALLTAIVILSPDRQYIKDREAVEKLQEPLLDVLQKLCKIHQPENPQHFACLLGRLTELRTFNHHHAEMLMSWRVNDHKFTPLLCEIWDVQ
structure (smiles),measurement,setting,value
CC1=CC2C3CC(C=C3C)C2C1 (configuration not stated),"ratio activity, negative = inhibition",[1],inconclusive: 24%
same,Potency,[2],active: 27.3 µM
same,Potency,[3],"inconclusive: 54.9 µM [cytotoxic, partial curve, poor fit]"
same,Potency,[4],"inconclusive: 61.6 µM [falling, single point]"
same,Potency,[5],"inactive and inconclusive: 97.7 nM [cytotoxic, full curve, poor fit]"
same,Potency,[6],"inconclusive: 49 µM [rising, single point]"
same,"activity change, negative = inhibition",[7],inconclusive: 7.68% and inconclusive: 18.3%
O=[N+]([O-])c1cc(Cl)c(Cl)c(Cl)c1Cl,"ratio activity, negative = inhibition",[1],inconclusive: -7.18%
same,Potency,[2],active: 3.42 µM
same,Potency,[3],"inconclusive: 0.0154 µM [rising, full curve, poor fit]"
same,Potency,[4],"inconclusive: 61.4 µM [activator, partial curve, poor fit]"
same,Potency,[8],"inconclusive: 54.8 µM [cytotoxic, single point]"
same,Potency,[9],"inconclusive: 54.8 µM [rising, single point]"
same,Potency,[10],"inconclusive: 17.3 µM [fluorescent, partial curve, poor fit]"
same,Potency,[11],"inconclusive: 61.4 µM [rising, partial curve, poor fit]"
same,Potency,[6],"inconclusive: 68.9 µM [rising, single point]"
same,"activity change, negative = inhibition",[7],inconclusive: -29.4%
C[N+](C)(C)CCCCCC[N+](C)(C)C,"ratio activity, negative = inhibition",[1],inconclusive: -2.55%
same,Potency,[2],inactive
same,Potency,[3],"inconclusive: 0.0047 µM [cytotoxic, full curve, poor fit]"
same,Potency,[10],inactive
CCCCCCCCCCCCN1CCCCCC1=O,Potency,[1],inactive
same,activation,[2],inconclusive: 26.9%
same,Potency,[3],"inconclusive: 54.9 µM [cytotoxic, single point]"
same,"ratio activity, negative = inhibition",[10],inconclusive: -28%
same,Potency,[12],"inconclusive: 1.74 µM [falling, full curve, poor fit]"
same,"activity change, negative = inhibition",[7],inconclusive: 15.6%
CN1CCN2c3ccccc3Cc3ccccc3C2C1 (configuration not stated),"ratio activity, negative = inhibition",[1],inconclusive: -8.58%
same,activation,[2],inconclusive: -3.97%
same,Potency,[8],"inconclusive: 29.8 µM [cytotoxic, partial curve]"
same,Potency,[5],"inconclusive: 15 µM [cytotoxic, full curve, poor fit]"
same,Potency,[12],"inconclusive: 26.6 µM [falling, partial curve, poor fit]"
